{"source": "PubChem BioAssay AID504466", "about": "(National Center for Advancing Translational Sciences (NCATS), 2011)", "note": "Among all 330,000 compounds or so, about 4,200 (1.3%) were called active. This list was built around the results that the source calls inconclusive (neither active nor inactive); the mix of calls is not that of the screen. The call rests on the fitted dose curve; in most records, active means well fitted activation curve with a large enough effect; inconclusive means small, poorly fitted or top-dose-only effect; inactive means no such curve, though single readings can be large or run the other way. Potencies of inconclusive entries are doubtful fits and often do not repeat. Potency means the concentration at half of the fitted maximal effect; tags describe the fitted curve by direction and shape.", "data": [{"assay": "qHTS screen for small molecules that induce genotoxicity in human embryonic kidney (HEK293T) cells expressing luciferase-tagged ELG1; further: nearly all actives have a fitted effect of over 60% in size", "conditions": "HEK293T ELG1-luciferase reporter, luminescence, 16 h; series mostly up to 46 µM", "how_it_was_run": "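Genotoxic stress is detected as increased luminescence from luciferase-tagged ELG1 in HEK293T cells, measured with ONE-Glo after a 16 hr treatment at 37 °C.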", "values": [{"smiles": "NS(=O)(=O)c1ccc(CCNC(=O)CSc2ccc(Cl)cc2Cl)cc1", "Potency": "inactive"}, {"smiles": "O=C(Nc1nc2ccccc2s1)c1ccc(OCC2CCCO2)cc1", "note": "(stereo not drawn)", "Potency": "inconclusive: 2.59 µM [activator, partial curve, poor fit]"}, {"smiles": "Cc1ccc(N/N=C/c2c(C)c(C#N)c(=O)n(C)c2O)cc1C", "Potency": "inconclusive: 32.6 µM [activator, partial curve, poor fit]"}, {"smiles": "N/C(=C\\C(=O)c1cc(Cl)ccc1O)C(Cl)(Cl)Cl", "Potency": "inconclusive: 18.3 µM [activator, single point]"}, {"smiles": "CCc1ccc(NC(=O)c2ccc3ncsc3c2)cc1", "Potency": "inconclusive: 0.651 µM [activator, full curve]"}, {"smiles": "COc1cccc(NC(=O)CN(C)C(=O)c2ccc(Cl)c(S(=O)(=O)N3CCCCCC3)c2)c1", "Potency": "inactive"}, {"smiles": "Cc1ccc(S(=O)(=O)c2cc3ccc(O)cc3oc2=O)cc1C", "Potency": "inactive"}, {"smiles": "O=C(CSc1nnc(-c2c[nH]c3ccccc23)o1)N(Cc1ccccc1)c1ccc(F)cc1", "Potency": "inactive"}, {"smiles": "O=C(COC(=O)c1cccnc1Nc1cccc(C(F)(F)F)c1)NCCN1C(=O)CSC1=O", "Potency": "inactive"}, {"smiles": "CCOC(=O)C1NN=C(C(=O)c2ccccc2)C1c1ccc(OC)cc1", "note": "(stereo not drawn)", "Potency": "inactive"}, {"smiles": "O=C(/C=C/c1cccnc1)c1ccc(F)c(F)c1", "Potency": "inconclusive: 29.1 µM [activator, single point]"}, {"smiles": "COc1cc(Br)c(/C=C/c2ccc3cccc(O)c3n2)cc1OC", "Potency": "inconclusive: 29.1 µM [activator, single point]"}, {"smiles": "O=C(COC(=O)CCc1nc2ccccc2s1)Nc1nc(-c2ccccc2)cs1", "Potency": "inconclusive: 23.1 µM [activator, partial curve, poor fit]"}, {"smiles": "Cn1cccc1/C=N/n1cnnc1", "Potency": "inactive"}, {"smiles": "CCCCCCCCSc1nnc(-c2ccc(OC)cc2)o1", "Potency": "inactive"}, {"smiles": "CC(=O)O[C@@H]1C[C@H]2C(C)(C)C(=O)C=C[C@]2(C)[C@H]2CC[C@@]3(C)[C@H](c4ccoc4)OC(=O)[C@H]4O[C@]43[C@@]21C", "Potency": "inactive"}, {"smiles": "Cn1c(-c2ccncc2)nc2ccccc21", "Potency": "inactive"}, {"smiles": "Cc1[nH]c(C)c2c(=O)n(-c3ccccc3)ncc12", "Potency": "active: 20.6 µM"}, {"smiles": "CC(=O)NC(C1C(=O)CC(C)(C)CC1=O)(C(F)(F)F)C(F)(F)F", "Potency": "inactive"}, {"smiles": "COc1ccccc1NC(=O)CSc1ccc(-c2ccccn2)nn1", "Potency": "inconclusive: 23.1 µM [activator, single point]"}, {"smiles": "Cc1[nH]c2ccccc2c1/C=C(\\C#N)C(=O)NC1CC1", "Potency": "inconclusive: 20.6 µM [activator, single point]"}, {"smiles": "Cc1nn(-c2ccccc2)c(N)c1C(O)(C(F)(F)F)C(F)(F)F", "Potency": "inactive"}, {"smiles": "CC(C)C(=O)Nc1cccc(-c2cn3ccsc3n2)c1", "Potency": "inconclusive: 18.4 µM [activator, partial curve, poor fit]"}, {"smiles": "CC1CCN(C(=O)Cn2nnc(-c3ccc(C(C)C)cc3)n2)CC1", "Potency": "inactive"}, {"smiles": "CCOC(=O)c1c(CN2CCN(C)CC2)n(C)c2cc(Br)c(OC)cc12", "Potency": "inconclusive: 20.6 µM [activator, partial curve, poor fit]"}, {"smiles": "NS(=O)(=O)c1ccc(N=Nc2c(-c3ccccc3)[nH]n(-c3nc(-c4ccccc4)cs3)c2=O)cc1", "Potency": "inactive"}, {"smiles": "CCN(CC)c1ccc(C=C2C(=O)OC(C)(C(C)(C)C)OC2=O)cc1", "note": "(stereo not drawn)", "Potency": "inactive"}, {"smiles": "Cc1cc(C)nc(SCC(=O)N/N=C/c2ccc3c(c2)OCO3)n1", "Potency": "inconclusive: 18.3 µM [activator, partial curve]"}, {"smiles": "Cc1csc(NC(=O)CSc2nnnn2C)n1", "Potency": "inconclusive: 18.4 µM [activator, partial curve, poor fit]"}, {"smiles": "CC(C)CC(=O)Nc1nnc(-c2ccco2)s1", "Potency": "active: 16.4 µM"}, {"smiles": "Cc1ccc(NC2Nc3cc(C)nn3S2)c(C)c1", "note": "(stereo not drawn)", "Potency": "inconclusive: 16.4 µM [activator, partial curve]"}, {"smiles": "Cc1nc(CN(C)Cc2nc(Cc3ccccc3Cl)no2)cs1", "Potency": "inactive"}, {"smiles": "O=C(Cn1nnc(-c2cccs2)n1)N1CCOCC1", "Potency": "inactive"}, {"smiles": "CCOC(=O)c1sc(=NC(=O)c2cccc(Br)c2)n(C)c1C", "Potency": "inconclusive: 1.83 µM [activator, full curve]"}, {"smiles": "COc1cc2c(cc1OC)C1(Nc3c-2c(Cc2ccccc2)nn3-c2ccccc2)C(=O)Nc2ccccc21", "note": "(stereo not drawn)", "Potency": "inactive"}, {"smiles": "CCC(=O)Nc1ccc(C(=O)Nc2cccnc2)cc1", "Potency": "inconclusive: 23.1 µM [activator, single point]"}, {"smiles": "Cc1ccc(C2/C(=C(\\O)c3ccc4c(c3)OCCO4)C(=O)C(=O)N2Cc2cccnc2)cc1", "note": "(stereo not drawn)", "Potency": "inactive"}, {"smiles": "O=C(Cn1c(/C=C/c2ccccc2)nc2ccccc21)Nc1ccc(F)cc1", "Potency": "inconclusive: 16.4 µM [activator, partial curve]"}, {"smiles": "Cc1nnc(NC(=O)CSc2nnc(-c3ccccc3)n2C)s1", "Potency": "inactive"}, {"smiles": "CC(=O)Oc1ccc(-c2cccc(C(=O)O)c2)cc1", "Potency": "inconclusive: 20.6 µM [activator, single point]"}, {"smiles": "Cn1c(N)c(C(=O)c2cc(-c3ccccc3)nc3ccccc23)c(=O)n(C)c1=O", "Potency": "inconclusive: 20.6 µM [activator, partial curve, poor fit]"}, {"smiles": "Cc1ccc(Nc2ncnc3sc(C)c(C)c23)cc1C", "Potency": "inconclusive: 12.6 µM [activator, single point]"}, {"smiles": "O=C(NCC1CCCO1)c1ccc(S(=O)(=O)Nc2ccccc2F)cc1", "note": "(stereo not drawn)", "Potency": "inactive"}, {"smiles": "O=C(COc1cccc2c1CCN(Cc1ccc(Br)cc1)C2=O)N1CCOCC1", "Potency": "inactive"}, {"smiles": "N/C(=N\\C(=S)Nc1ccccc1)c1ccccc1", "Potency": "inconclusive: 2.06 µM [activator, full curve]"}, {"smiles": "O=C(Nc1nccs1)c1cc2c(s1)-c1ccccc1OC2", "Potency": "active: 8.2 µM"}, {"smiles": "CCNS(=O)(=O)c1ccc(NC(=O)Nc2ccc3c(c2)OCO3)cc1", "Potency": "inactive"}, {"smiles": "Cc1ccc(C(=O)CSc2nnnn2C(C)C)c(C)c1", "Potency": "inconclusive: 0.206 µM [activator, full curve, poor fit]"}, {"smiles": "CN(C)c1ccc(/C=C/C(=O)c2ccccc2)cc1[N+](=O)[O-]", "Potency": "inactive"}, {"smiles": "CCCCN(C)CCCNC(=O)c1cccc(N2CCCC2=O)c1", "Potency": "inactive"}, {"smiles": "Cc1cc(Oc2nnnn2-c2ccccc2)ccc1Cl", "Potency": "inconclusive: 16.4 µM [activator, single point]"}, {"smiles": "Cc1nn(-c2ccccc2)c(Cl)c1/C=N/Nc1ccc(Cl)c(C(=O)O)c1", "Potency": "active: 0.184 µM"}, {"smiles": "C=CCC(O)(CC=C)CNC(=O)C1CCC(=O)N(CCCc2ccccc2)C1", "note": "(stereo not drawn)", "Potency": "inactive"}, {"smiles": "O=C(N/N=C/c1cc([N+](=O)[O-])ccc1O)c1c[nH]c2ccccc12", "Potency": "inactive"}, {"smiles": "COc1ccc(CNC(=O)C(=O)NCC2OCCCN2S(=O)(=O)c2cccs2)cc1", "note": "(stereo not drawn)", "Potency": "inactive"}, {"smiles": "COc1ccc(NC(=O)c2cc(-c3ccco3)on2)cc1OC", "Potency": "inconclusive: 18.3 µM [activator, single point]"}, {"smiles": "O=C(Nc1cccc(S(=O)(=O)N2CCCCCC2)c1)c1cncc(Br)c1", "Potency": "inactive"}, {"smiles": "O=C1NC(c2ccc(Br)cc2)Nc2sc3c(c21)CCC3", "note": "(stereo not drawn)", "Potency": "inactive"}, {"smiles": "O=C(/C=C/c1c[nH]c2ccccc12)c1ccccc1", "Potency": "active: 16.4 µM"}, {"smiles": "O=C(Nc1cnc2sccn2c1=O)c1ccc(Cl)cc1Cl", "Potency": "active: 2.59 µM"}, {"smiles": "Clc1ccc(/C=N/Nc2nnc(Cl)c3ccccc23)cc1", "Potency": "inconclusive: 13 µM [activator, partial curve]"}, {"smiles": "O=C(CN1CCCC1)Nc1ccc(NC(=O)Nc2ccccc2Cl)cc1", "Potency": "inconclusive: 18.4 µM [activator, single point]"}, {"smiles": "Cc1ccc(C)c(S(=O)(=O)N2CCCCC2CCNC(=O)C(=O)NCc2ccccc2)c1", "note": "(stereo not drawn)", "Potency": "inactive"}, {"smiles": "CCCCOc1ccc(OCCNC(=O)c2ccco2)cc1", "Potency": "inconclusive: 29.1 µM [activator, single point]"}, {"smiles": "C=C(C)CNC(=S)Nc1nc2c(cc1C(=O)OCC)CCCC2", "Potency": "inconclusive: 16.4 µM [activator, single point]"}, {"smiles": "C/C(=N\\NC(=O)c1csc(C)c1C)c1ccc(Cl)s1", "Potency": "inconclusive: 5.17 µM [activator, partial curve]"}, {"smiles": "COc1ccccc1/C=C/C=N/Nc1cccc(C(=O)O)c1", "Potency": "active: 0.651 µM"}, {"smiles": "O=c1c2ccccc2nc2n1CCN2Cc1ccc(Cl)cc1", "Potency": "inconclusive: 23.1 µM [activator, single point]"}, {"smiles": "O=C(NCCCc1ccccc1)c1ccccc1", "Potency": "inconclusive: 13 µM [activator, partial curve, poor fit]"}, {"smiles": "Cc1cccc(NC(=O)C2CC(=O)N(c3ccc4c(c3)OCCO4)C2)n1", "note": "(stereo not drawn)", "Potency": "inactive"}, {"smiles": "Cn1c(N)c(C(=O)/C=C/c2ccccc2)c(=O)[nH]c1=O", "Potency": "inconclusive: 23.1 µM [activator, partial curve]"}, {"smiles": "CCn1c(CC(=O)Nc2ccc(C)cc2)nnc1SCC(=O)Nc1nc(C)cs1", "Potency": "inconclusive: 29.1 µM [activator, single point]"}, {"smiles": "NNC(=O)c1[nH]c2ccccc2c1-c1ccccc1", "Potency": "inconclusive: 25.9 µM [activator, partial curve, poor fit]"}, {"smiles": "COc1cccc([C@@H]2Oc3ccc(OC)cc3C(=O)[C@H]2OC(=O)NCc2ccc3c(c2)OCO3)c1", "Potency": "inconclusive: 9.2 µM [activator, partial curve, poor fit]"}, {"smiles": "O=C(O)c1cccc(-c2ccc(/C=N/Nc3ccc([N+](=O)[O-])cc3)o2)c1", "Potency": "inactive"}, {"smiles": "O=[N+]([O-])c1ccc(O)c(/C=N/n2c(CO)nc3ccccc32)c1", "Potency": "inactive"}, {"smiles": "CN(C)S(=O)(=O)c1ccc2c(c1)/C(=C/c1cc3c([nH]1)CCCC3)C(=O)N2", "Potency": "inconclusive: 8.2 µM [activator, partial curve]"}, {"smiles": "CCOC(=O)C1(CC2CCCCO2)CCN(Cc2cc(F)ccc2-n2cccn2)CC1", "note": "(stereo not drawn)", "Potency": "inconclusive: 32.6 µM [activator, partial curve, poor fit]"}]}]}
